# “And” between values parts separate entries of the source, which are not always exact repeats. Equal entries are not always repeated. Among all 300,000 compounds or so, about 1,200 (0.4%) were called active. Inconclusive means that the source gave no clear call. Such entries were picked first, then a sample of the others. The call rests on the fitted dose curve; in most records, active means well fitted inhibition curve with a large enough effect; inconclusive means small, poorly fitted or top-dose-only effect, or another doubt; inactive means no such curve, though single readings can be large or run the other way. A potency beside an inconclusive call is a rough fit, not a confirmed value.
# Target: Lysosomal alpha-glucosidase (Homo sapiens) (UniProt P10253)
# Test: qHTS Assay for Inhibitors and Activators of Human alpha-Glucosidase Cleavage of Glycogen;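 on activity change, negative = inhibition: 0% = full enzyme reaction and -100% = no-enzyme basal signal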
# Settings: recombinant GAA, glycogen substrate, Amplex Red glucose oxidase fluorescence; activity change, negative = inhibition: at 76.4 µM (top of the series) unless noted
# Outline: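 Recombinant human alpha-glucosidase (4 nM final) hydrolysed bovine liver glycogen (30 ug) for 40 min at 37 C in pH 5.0 citrate/phosphate with 0.01% Tween-20. Released glucose detected by glucose oxidase/Amplex Red, Ex 573/Em 610 nm. Compounds up to 77 uM; AC50 from Hill fits.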
# Potency means the concentration at half of the fitted maximal effect.
Compound,Potency,"activity change, negative = inhibition"
CC1CCCC(C)N1C(=O)COc1ccc(C(=O)Nc2ccccc2N2CCOCC2)cc1 (stereo not drawn),"inconclusive: 28.2 µM [activator, partial curve]",–
CCN(c1ccccc1)S(=O)(=O)c1ccc(NC(=S)NC(=O)c2cccs2)cc1,"inconclusive: 35.2 µM [inhibitor, single point]",–
Cc1ccc(-c2nc3ncccn3c2Nc2ccc3c(c2)OCCO3)o1,active: 14 µM,–
C=CCNC(=S)Nc1ccc(N(C)C)cc1,active: 3.14 µM,–
COc1ccc2oc(C(=O)OCc3c(C)noc3C)c(C)c2c1,"inconclusive: 63.1 µM [inhibitor, partial curve, poor fit]",–
O=C(Oc1ccc[nH]c1=O)c1cc([N+](=O)[O-])cc([N+](=O)[O-])c1,"inconclusive: 7.03 µM [inhibitor, partial curve]",–
CCCN1CCN(C(=O)Cn2c(-c3cccs3)cc3ccccc32)CC1,"inconclusive: 56.2 µM [inhibitor, single point]",–
Cc1ccsc1C1C(C#N)=C(N)N(N(C)C)C2=C1C(=O)CCC2 (stereo not drawn),inactive,–
Cn1c(=O)[nH]c(=O)c2[nH]c(NCCCN3CCOCC3)nc21,"inconclusive: 15.7 µM [inhibitor, partial curve]",–
O=C(O)c1ccccc1P(=O)(c1ccccc1)c1ccccc1,–,inconclusive: 34.4% [activator]
COc1cc(-c2nc3cnccn3c2Nc2ccc(C)cc2)ccc1O,active: 11.1 µM,–
COC(=O)C1=C(O)/C(=C\c2ccc(CNC(=O)C(=O)Nc3ccc(C)cc3)o2)N=C1C,"inconclusive: 31.6 µM [inhibitor, single point]",–
O=C1/C(=C/c2ccncc2)SC(=S)N1N1CCOCC1,"inconclusive: 31.6 µM [inhibitor, single point]",–
Cc1ccc(Nc2c(-c3ccc(Cl)cc3)nc3sccn23)c(C)c1,"inconclusive: 25.1 µM [inhibitor, partial curve]",–
COC(=O)c1ccccc1N=Nc1c(N)n[nH]c1N,"inconclusive: 12.6 µM [inhibitor, partial curve]",–
CC(=O)N1c2ccccc2Nc2ccccc21,"inconclusive: 11.2 µM [inhibitor, single point]",–
COc1ccc(NC(=O)C2CC(c3ccc(OC)c(OC)c3)=NO2)cc1OC (stereo not drawn),"inconclusive: 2.82 µM [inhibitor, partial curve]",–
COc1cc(CN2CCN(Cc3ccc(C)cc3)C(CCO)C2)cc(OC)c1O (stereo not drawn),"inconclusive: 4.47 µM [inhibitor, full curve]",–
Cc1ccc(CNc2ncc(-c3ccccc3)n2C)o1,"inconclusive: 15.7 µM [inhibitor, partial curve]",–
Cc1cc(C)n2c(Nc3ccc4c(c3)OCCO4)c(-c3ccc(Cl)cc3)nc2n1,"inconclusive: 4.47 µM [inhibitor, full curve]",–
COC(=O)c1ccc(N2NC(=O)/C(=C/c3cc(OC)c(OC)c(OC)c3)C2=O)cc1,"inconclusive: 10 µM [inhibitor, full curve]",–
Cc1ccc(-n2c(C)cc(C(=O)CSc3nncs3)c2C)cc1,inactive,–

Compound,Potency,"activity change, negative = inhibition"
O=[N+]([O-])c1ccc(N/N=C/c2ccc[nH]2)cc1,active: 7.94 µM,–
Cc1cc(SCC(=O)c2ccc(O)c(O)c2)nc2ccccc12,active: 4.43 µM,–
O=C(CCCn1c(SCC(=O)NC2CCCCC2)nc2ccccc2c1=O)NCC1CCCO1 (stereo not drawn),inactive,–
CC1=C(c2ccc(C)cc2)S(=O)(=O)NC1=NCCCN1CCN(c2ccccc2F)CC1,inactive,–
COc1ccc(C(=O)c2sc(Nc3ccccc3)c(C(=O)Nc3ccc(OC)c(OC)c3)c2N)cc1,"inconclusive: 15.8 µM [inhibitor, partial curve]",–
COc1cc(/C=N/n2c(-c3ccccc3)n[nH]c2=S)ccc1O,"inconclusive: 28.2 µM [inhibitor, single point]",–
CC(C)=CCc1c2c(c3occ(-c4ccc(O)cc4)c(=O)c3c1O)C=CC(C)(C)O2,"inconclusive: 12.6 µM [inhibitor, single point]",–
COCCNc1oc(-c2ccc(F)cc2)nc1C#N,"inconclusive: 28 µM [inhibitor, single point]",–
Cc1ccc(S(=O)(=O)Nc2nc(C)cc(NN)n2)cc1,"inconclusive: 31.6 µM [inhibitor, partial curve]",–
CNc1c2c(nn1C)CCCC2,"inconclusive: 10 µM [inhibitor, partial curve] and inconclusive: 31.6 µM [inhibitor, single point]",–
Cc1cc(C)c2c(-n3cccc3)c(C(=O)NNS(=O)(=O)c3ccc(Br)cc3)sc2n1,active: 17.8 µM,–
CCc1ccc(C2C(C#N)=C(N)N(N(C)C)C3=C2C(=O)CCC3)cc1 (stereo not drawn),"inconclusive: 11.2 µM [inhibitor, partial curve]",–
CCc1ccc2[nH]c(O)c(N=Nc3nc(-c4ccccc4)cs3)c2c1,"inconclusive: 11.1 µM [inhibitor, partial curve]",–
O=S(=O)(N/N=C/c1ccccc1F)c1ccccc1,"inconclusive: 7.08 µM [inhibitor, partial curve]",–
CCOC(=O)c1cc(NC(=O)c2ccc(C)cc2)c(=O)oc1C(F)(F)F,"inconclusive: 22.2 µM [inhibitor, single point]",–
CC(=O)N1CCC(=NNc2ccnc3cc(Cl)ccc23)CC1,"inconclusive: 35.5 µM [inhibitor, partial curve]",–
C/C(=N\NC(=O)c1cc([N+](=O)[O-])cc([N+](=O)[O-])c1)c1ccco1,"inconclusive: 11.2 µM [inhibitor, single point]",–
O=C(O)COc1ccccc1/C=C1\SC(=S)N(/N=C/c2ccccc2O)C1=O,inactive,–
CCCc1[nH]nc2c1C(c1ccc(O)cc1OCC)C(C#N)=C(N)O2 (stereo not drawn),"inconclusive: 8.91 µM [inhibitor, full curve]",–
Cc1nc2ccccn2c1C(=O)NN,"inconclusive: 14.1 µM [inhibitor, partial curve]",–
COc1ccc(CN2CN(C3CCCC3)CSC2=S)cc1,"inconclusive: 17.6 µM [inhibitor, single point]",–
